Measured values as given in article PMC4336329 (PLoS ONE, 2015).
Out of some 310,000 compounds screened, about 14,000 (4.5%) showed an effect of 50% or more. Effects have a minus sign here. The list shows a part of the results.

Molecular target: human ether-à-go-go-related gene (hERG) potassium channel (human, UniProt Q12809)
Assay: primary screen, population patch clamp on CHO cells stably expressing hERG
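Further: peak tail current of the secondary pulse compared with the same well before compound.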

Chain of human ether-à-go-go-related gene (hERG) potassium channel (Q12809 whole entry, looked up): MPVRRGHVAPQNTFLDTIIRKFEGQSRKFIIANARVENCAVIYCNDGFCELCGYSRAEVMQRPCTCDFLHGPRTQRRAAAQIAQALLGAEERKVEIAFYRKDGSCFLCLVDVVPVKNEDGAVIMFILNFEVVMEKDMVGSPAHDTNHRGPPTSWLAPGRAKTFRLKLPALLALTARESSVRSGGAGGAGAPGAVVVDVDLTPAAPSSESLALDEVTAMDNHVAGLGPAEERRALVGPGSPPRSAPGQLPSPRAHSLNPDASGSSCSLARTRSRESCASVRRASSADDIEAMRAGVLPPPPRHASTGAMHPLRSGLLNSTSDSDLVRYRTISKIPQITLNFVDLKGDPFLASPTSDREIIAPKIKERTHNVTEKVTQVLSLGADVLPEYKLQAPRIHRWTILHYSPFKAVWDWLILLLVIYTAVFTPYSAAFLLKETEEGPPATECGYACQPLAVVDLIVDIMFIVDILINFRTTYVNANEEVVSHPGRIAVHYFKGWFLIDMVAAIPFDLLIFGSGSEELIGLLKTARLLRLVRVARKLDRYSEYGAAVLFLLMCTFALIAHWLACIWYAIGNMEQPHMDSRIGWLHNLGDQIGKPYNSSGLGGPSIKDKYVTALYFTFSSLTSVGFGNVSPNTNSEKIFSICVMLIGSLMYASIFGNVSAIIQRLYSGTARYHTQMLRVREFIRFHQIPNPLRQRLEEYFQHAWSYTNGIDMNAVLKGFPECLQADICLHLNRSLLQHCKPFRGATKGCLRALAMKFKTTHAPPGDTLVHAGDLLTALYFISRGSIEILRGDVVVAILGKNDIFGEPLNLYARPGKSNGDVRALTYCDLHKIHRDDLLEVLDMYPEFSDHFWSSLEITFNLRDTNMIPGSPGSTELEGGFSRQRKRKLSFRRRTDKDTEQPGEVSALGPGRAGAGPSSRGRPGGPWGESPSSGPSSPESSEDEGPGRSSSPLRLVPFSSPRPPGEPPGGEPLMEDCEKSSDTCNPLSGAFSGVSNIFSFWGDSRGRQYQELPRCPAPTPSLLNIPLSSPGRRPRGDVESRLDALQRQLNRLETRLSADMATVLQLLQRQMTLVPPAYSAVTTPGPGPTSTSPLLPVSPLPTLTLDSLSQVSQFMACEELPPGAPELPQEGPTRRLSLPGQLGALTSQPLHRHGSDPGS

Compound	hERG current change (%, negative = inhibition) at 10uM [%]
COc1ccc(S(=O)(=O)n2ccc(-c3ccc(OCCN(C)c4ccccn4)cc3)n2)cc1	11.4
C=CCOC(=O)C1=C[C@H](c2ccc(C(F)(F)F)cc2)C[C@H](OCCCCO)O1	-26.5
Cc1cc(C)cc(NC(=O)COC(=O)Cn2cnc3c2c(=O)n(C)c(=O)n3C)c1	-41.1
CC(C)(C)n1nc2c(c1NC(=O)c1cccs1)CS(=O)C2 (centres unmarked)	23.4
C/C(N)=C(/C#N)C(=O)COC(=O)c1cc(-c2ccc(C)cc2)nc2ccccc12	16.8
Cc1c(C(=O)NN2CCOCC2)cccc1[N+](=O)[O-]	3.03
Cc1ccccc1NC(=O)c1ccc(S(=O)(=O)N2CCCC2)cc1	10.2
CCN(CCn1cccn1)C(=O)CC1C(=O)NCCN1CCc1ccccc1 (centres unmarked)	-1.17
COc1ccccc1Nc1nnc(Cc2ccccc2)c(=O)[nH]1	22.9
Cc1cc(C)cc(C(=O)NCCC(=O)N2CCC3(CC2)NCCc2[nH]cnc23)c1	24.4
COc1ccc(NC(=O)CCN=C2NS(=O)(=O)c3ccccc32)cc1S(=O)(=O)N(C)C	-0.187
CCCOc1ccc2oc(=O)c3c(c2c1)CCCN3C(=O)CN1CCN(C(=O)c2ccco2)CC1	-65.3
CCCCCn1c(=O)[nH]c2cc(C(=O)NCCN3CCC(C)CC3)ccc2c1=O	-30.2
Cc1cc(/C=N/n2cnnc2)c(C)n1-c1cccc(C(=O)O)c1	5.55
CCC(CO)NCc1ccc2c(c1)n(C)c(=O)n2C.Cl (centres unmarked)	17.4
CCN(c1ccccc1)S(=O)(=O)c1ccc(NCC2COc3ccccc3O2)nc1 (centres unmarked)	-2.4
COc1ccc(/C=C(\NC(=O)c2ccccc2)C(=O)NNC(=O)CCN2CCOCC2)cc1	8.16
CC(OC(=O)c1cc[n+]([O-])cc1)C(=O)NCc1ccccc1 (centres unmarked)	11
CN(C)C(=O)CNC(=O)CN1C(=O)NC2(CCCc3sccc32)C1=O (centres unmarked)	10.7

Compound	hERG current change (%, negative = inhibition) at 10uM [%]
C1=C(CCNc2nnnn2-c2ccccc2)CCCC1	-1.63
CCC(=O)N(Cc1cc2ccccc2[nH]c1=O)c1ccc(OC)cc1	-11.9
O=C(Nc1ccc(F)cc1)Nc1ccc(NC(=O)c2ccccc2O)cc1	8.33
O=C1CC(c2ccccc2)Cc2nc(N3CCc4ccccc4C3)ncc21 (centres unmarked)	-2.75
O=C(NC1CONC1=O)OCC(Cl)(Cl)Cl (centres unmarked)	8.91
CN(CC(=O)Nc1nc2ccccc2s1)S(=O)(=O)c1ccc(Br)cc1	-7.29
COc1ccc(NC(=O)c2c(-c3c(Cl)cccc3Cl)noc2C)cn1	4.96
Cc1cc(C)c(S(=O)(=O)N(C)CC(=O)NCc2ccncc2)c(C)c1	-11.8
CC(=O)c1cn(C)c(=O)[nH]c1=O	26.7
Cc1ccc(C(=O)Nc2ccc(-c3csc(C)n3)cc2)cc1	17.3
COc1ccc(S(=O)(=O)Nc2ccccc2N2CCOCC2)cc1OC	7.95
CCN(CC)CCNC(=O)C1CCN(S(=O)(=O)N2CCCCC2)CC1	-6.62
C=CCNC(=O)NC(=O)COC(=O)/C(C#N)=C/c1cc(C)n(CC(C)C)c1C	-4.06
Cc1nnc(SCc2nc3scc(-c4ccccc4)c3c(=O)[nH]2)s1	12.7
CCOC(=O)Cc1csc(NC(=O)Cc2ccc(Cl)cc2)n1	-15.1
O=C(COC(=O)c1ccccc1)NCCC1=CCCCC1	20.4
COc1ccc2[nH]cc(CCN3C(=O)c4ccc(C(=O)O)cc4C3=O)c2c1	12.4
CCN1C(=O)[C@H]2[C@@H](c3ccc(C)cc3)N3C(=O)N(c4ccccc4)C(=O)[C@@]3(Cc3ccc(Cl)cc3)[C@H]2C1=O	11.4
CN1CCN(C(=O)CSc2nc(-c3ccncc3)ccc2C#N)CC1	-8.11

Compound	hERG current change (%, negative = inhibition) at 10uM [%]
O=C(CSc1ncccn1)NC(=O)NCc1ccccc1	18.7
O=C(NCCc1ccccc1)C1CCCN(S(=O)(=O)c2cccnc2)C1 (centres unmarked)	0.403
Cc1cccc(NC(=O)c2ccc3c(c2)CCN3S(C)(=O)=O)c1C	2.45
CCc1nnc(NC(=O)CSc2nnc(-c3cc4ccccc4cc3O)n2CCOC)s1	-25.6
Cc1cccc(Cc2c(C)nc3c(C(=O)NCc4ccco4)cnn3c2C)c1	-30.8
CCOC(=O)N1CCN(Cc2cn[nH]c2-c2ccc(-c3ccccc3)cc2)CC1	-54.8
O=C(CNC(=O)c1ccccc1F)Nc1ccccc1C(F)(F)F	13.8
COC(=O)C1=C(C)N(C)C(=O)NC1c1c(O)ccc2ccccc12 (centres unmarked)	0.915
Cc1noc(C)c1S(=O)(=O)N1CCC(C(=O)NC2CCCc3ccccc32)CC1 (centres unmarked)	7.87
O=C(NCCCN1CCCC1=O)c1ccc(CNS(=O)(=O)c2ccc(F)cc2)cc1	-3.18
Cc1cc(NCCCN2CCOCC2)n2c(nc3ccccc32)c1C#N	-23.3
CCn1c(SCC(=O)Nc2nncs2)nnc1C(C)NC(=O)c1ccccc1Br (centres unmarked)	19
O=C(NCCCn1ccnc1)c1cccc(Br)c1	-10.3
COP(=O)(OC)C(NC(=O)Nc1ccccc1)c1ccccc1 (centres unmarked)	0.454
Cc1ccc(Nc2nnc(SCn3nnc4ccccc4c3=O)s2)cc1	2.83
O=C(O)C1=C[C@@H](C2CC2)C[C@@H](OCCCCO)O1	10.9
C=CCn1c(O)c(C(CC)=Nc2ccc(N(CC)CC)cc2)c(=O)[nH]c1=O	13.3
COc1ccc(OC)c(-c2nc3cc4ccccc4cc3nc2-c2ccccc2)c1	11.4
